Experimental data as given in PubChem BioAssay AID1030 (National Center for Advancing Translational Sciences (NCATS), 2008).
“And” between values parts separate entries of the source, which are not always exact repeats. Identical values can stand only once. Out of some 220,000 compounds screened, about 16,000 (7.3%) were called active. Inconclusive means that the source gave no clear call. Such entries were picked first, then a sample of the others. Calls come from the whole dose curve; as a rule, active = well fitted inhibition curve with a large enough effect (not every such curve was filed as active); inconclusive = small, poorly fitted or top-dose-only effect, or another doubt; inactive = no such curve, though single readings can be large or run the other way. Potencies of inconclusive entries are left out as doubtful fits. A structure can be active in one record and inactive in another.

Target: Aldehyde dehydrogenase 1A1 (Homo sapiens) (UniProt P00352)
Chain of UniProt P00352 (P00352 whole entry, looked up): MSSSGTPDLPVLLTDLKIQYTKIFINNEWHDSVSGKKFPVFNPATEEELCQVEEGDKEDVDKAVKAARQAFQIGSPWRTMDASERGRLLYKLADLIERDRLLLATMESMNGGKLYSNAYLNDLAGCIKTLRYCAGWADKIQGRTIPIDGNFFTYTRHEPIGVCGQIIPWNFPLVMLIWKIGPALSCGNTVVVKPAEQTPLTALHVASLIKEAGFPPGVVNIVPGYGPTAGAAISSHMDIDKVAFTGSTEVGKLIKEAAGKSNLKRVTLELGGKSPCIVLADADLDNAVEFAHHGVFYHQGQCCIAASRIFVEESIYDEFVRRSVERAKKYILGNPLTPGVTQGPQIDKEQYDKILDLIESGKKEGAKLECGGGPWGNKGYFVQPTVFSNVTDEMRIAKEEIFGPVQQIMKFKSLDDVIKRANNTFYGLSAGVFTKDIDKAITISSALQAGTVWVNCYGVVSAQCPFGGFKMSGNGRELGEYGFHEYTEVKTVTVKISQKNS
Test: qHTS Assay for Inhibitors of Aldehyde Dehydrogenase 1 (ALDH1A1);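 for activity, negative = inhibition: plate controls were no enzyme wells and a reference inhibitor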
Settings: Purified ALDH1A1, NADH fluorescence, propionaldehyde substrate; series mostly up to 75.3 µM
Potency is the fitted concentration of half-maximal effect; tags give direction and shape of the fitted curve.

| Structure (SMILES) | Potency | activity, negative = inhibition |
| --- | --- | --- |
| COc1ccc(-n2c(SC)nc3ccccc3c2=O)cc1 | inactive |  |
| COc1ccccc1CCNC1CCC(C(C)(C)C)CC1 (stereo unspecified) | inconclusive [inhibitor, partial curve] |  |
| CC(COc1ccccc1)N(CCCl)Cc1ccccc1 (stereo unspecified) | inactive and active: 20 µM and active: 28.2 µM |  |
| Cc1ccccc1NC(=S)NC(NC(=O)CF)C(Cl)(Cl)Cl (stereo unspecified) | inconclusive [inhibitor, single point] |  |
| CCN(CC)C(=O)c1ccc(NC(=O)c2ccc(-c3nn(C)c(=O)c4ccccc34)cc2)cc1 | inconclusive [inhibitor, partial curve] |  |
| Fc1ccc(CNCCc2ccccc2)cc1 | inconclusive [inhibitor, single point] |  |
| CCCc1nc2ccc(Br)cc2c(=O)n1-c1ccc([N+](=O)[O-])c(C(F)(F)F)c1 | inactive |  |
| O=C(N/N=C/c1c(O)n(CCC2=CCCCC2)c(=S)[nH]c1=O)c1ccccc1 | inconclusive [inhibitor, single point] |  |
| CC(=NCCN1CCCCC1)c1c(O)n(Cc2ccccc2)c(=O)[nH]c1=O | inconclusive [inhibitor, single point] |  |
| C=C(C)C1Cc2c(ccc3c(=O)c4c(oc23)COc2cc(OC)c(OC)cc2-4)O1 (stereo unspecified) | inactive |  |
| CCCc1[nH][nH]c(=O)c1C(c1ccccc1)C(C#N)C#N (stereo unspecified) | active: 22.4 µM |  |
| C=Cn1c(P(=S)(N2CCOCC2)N2CCOCC2)cc2c1CCCC2 | inconclusive [inhibitor, single point] |  |
| CCCOc1ccc2[nH]cc(C3=CCNCC3)c2n1 | inconclusive [inhibitor, partial curve] |  |
| O=C(O)[C@H]1C[C@@H]1[C@H](NP(=O)(c1ccccc1)c1ccccc1)c1ccccc1 | inactive |  |
| COc1ccc(C=O)cc1 | active: 7.94 µM |  |
| CC1CCCN(C(=O)c2ccc(N3CC4CC(C3)c3cccc(=O)n3C4)c([N+](=O)[O-])c2)C1 (stereo unspecified) | active: 7.94 µM |  |
| CCCC[C@H]1C(=O)O[C@H](C)[C@H](NC(=O)c2cccc(NC=O)c2OC)C(=O)O[C@@H](C)[C@@H]1OC(=O)CC(C)C | inactive |  |
| O=C(Nc1ccc(-c2nc3ccccc3c(=O)o2)cc1)c1ccco1 | inconclusive [inhibitor, single point] |  |
| Cn1c(O)c(C=NCCN2CCN(C(=O)c3ccccc3)CC2)c(=O)n(C)c1=O | inconclusive [inhibitor, single point] |  |
| CC1(C)CC(=O)c2cc(OCC(=O)N3CCN(Cc4ccccc4)CC3)ccc2O1 | inconclusive [inhibitor, partial curve] |  |
| Cc1ccc(CN2C3CCCC2CC(NC(=S)NCc2ccccc2)C3)cc1 (stereo unspecified) | inconclusive [inhibitor, single point] |  |
| O=C(Cc1ccccc1)N1CCN(Cc2cccnc2)CC1 | inconclusive [inhibitor, single point] |  |
| Oc1ccccc1O | active: 17.8 µM and active: 14.1 µM |  |

| Structure (SMILES) | Potency | activity, negative = inhibition |
| --- | --- | --- |
| Cc1cc(N2CCCC2)ccc1C=C(C#N)C#N | inactive |  |
| C=CCN(CC=C)Cc1c[nH]c2ccccc12 | inconclusive [inhibitor, single point] |  |
| CC(C)C[C@H]1C(=O)N2CCCC2[C@]2(O)O[C@](NC(=O)[C@@H]3C=C4c5cccc6[nH]c(Br)c(c56)C[C@H]4N(C)C3)(C(C)C)C(=O)N12 (stereo partly specified) | inactive |  |
| COC1=C[C@H]2[C@H]3Cc4ccc(OC)c(O)c4[C@@]2(CCN3C)CC1=O | inactive |  |
| O=C(OCC(=O)c1ccc([N+](=O)[O-])cc1)/C(=C\c1ccc(Cl)cc1)NC(=O)c1ccccc1 | active: 12.6 µM |  |
| O=C1C2CCN(CC2)[C@@H]1Cc1ccc2ccccc2c1O | inactive |  |
| O=C(Oc1ccccc1)N1CCC2(CCCN(C(c3ccccc3)c3ccccc3)C2)CC1 | inactive |  |
| CCOc1cc2[nH]c(=S)n(CCCC(=O)N3CCC4(CC3)OCCO4)c(=O)c2cc1OCC | inconclusive [inhibitor, partial curve] |  |
| Cc1cc(OCC(=O)NC2CCS(=O)(=O)C2)c2c3c(c(=O)oc2c1)CCC3 (stereo unspecified) | inconclusive [inhibitor, partial curve] |  |
| CC1CCCN(CC(=O)c2ccc(Cl)c(Cl)c2)C1 (stereo unspecified) | active: 2 µM |  |
| C[C@@]12CC(c3ccoc3)OC(=O)C1CC[C@@]1(C)C2C2C=C[C@@]1(O)C(=O)O2 (stereo partly specified) | inactive |  |
| COc1ccc(Cn2c(N)c(C(=O)NCc3ccco3)c3nc4ccccc4nc32)cc1OC | inconclusive [inhibitor, partial curve] |  |
| O=C1NC(=O)N(c2ccccc2)C(=O)/C1=C\c1ccc2c3c(cccc13)CC2 | inconclusive [inhibitor, partial curve] |  |
| O=C(CN1CCOCC1)c1ccc2cc[nH]c2c1 | inconclusive [inhibitor, partial curve] |  |
| CC(=O)O[C@H]1CC[C@@]2(C)[C@@H](CC[C@H]3[C@H]2CC(=O)[C@]2(C)[C@@H]3C[C@@H](N3CC3)[C@H]2C(C)=O)C1 |  | inactive: 6.14% [at 13.5 µM] |
| C=C(C)C1CNC(C(=O)O)C1CC(=O)O (stereo unspecified) | inactive |  |
| CC(=O)Nc1c2sscc-2n(C)c1=O | inactive |  |
| COC(=O)N(c1ccccc1)P1(=S)OCCO1 | active: 3.98 µM |  |
| O=C(c1ccccc1F)c1cn(CC(=O)N2CCCCC2)c2ccccc12 | inconclusive [inhibitor, single point] |  |
| CC(=O)N1CCN(CC(=O)Nc2ccc(C#N)c(Cl)c2)CC1 | inactive |  |
| CN(C)CCN=Cc1c(O)n(CCC2=CCCCC2)c(=O)[nH]c1=O | inconclusive [inhibitor, single point] |  |
| N#Cc1cccc(NC(=O)N2CC3(CCN(C(=O)Oc4ccccc4)CC3)C2)c1 | inconclusive [inhibitor, single point] |  |
| Cc1[nH]c2ccccc2c1C1=CCNCC1 | inconclusive [inhibitor, single point] |  |
